Reference: publication PMC4336329 (PLoS ONE, 2015)
About 14,000 (4.5%) of roughly 310,000 compounds showed an effect of 50% or more. Effects have a minus sign here. This is one part of the list.

biological target: human ether-à-go-go-related gene (hERG) potassium channel (human, UniProt Q12809); assay: primary screen, population patch clamp on CHO cells stably expressing hERG
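Also: peak tail current of the secondary pulse compared with the same well before compound.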

human ether-à-go-go-related gene (hERG) potassium channel, sequence (Q12809 whole entry, looked up): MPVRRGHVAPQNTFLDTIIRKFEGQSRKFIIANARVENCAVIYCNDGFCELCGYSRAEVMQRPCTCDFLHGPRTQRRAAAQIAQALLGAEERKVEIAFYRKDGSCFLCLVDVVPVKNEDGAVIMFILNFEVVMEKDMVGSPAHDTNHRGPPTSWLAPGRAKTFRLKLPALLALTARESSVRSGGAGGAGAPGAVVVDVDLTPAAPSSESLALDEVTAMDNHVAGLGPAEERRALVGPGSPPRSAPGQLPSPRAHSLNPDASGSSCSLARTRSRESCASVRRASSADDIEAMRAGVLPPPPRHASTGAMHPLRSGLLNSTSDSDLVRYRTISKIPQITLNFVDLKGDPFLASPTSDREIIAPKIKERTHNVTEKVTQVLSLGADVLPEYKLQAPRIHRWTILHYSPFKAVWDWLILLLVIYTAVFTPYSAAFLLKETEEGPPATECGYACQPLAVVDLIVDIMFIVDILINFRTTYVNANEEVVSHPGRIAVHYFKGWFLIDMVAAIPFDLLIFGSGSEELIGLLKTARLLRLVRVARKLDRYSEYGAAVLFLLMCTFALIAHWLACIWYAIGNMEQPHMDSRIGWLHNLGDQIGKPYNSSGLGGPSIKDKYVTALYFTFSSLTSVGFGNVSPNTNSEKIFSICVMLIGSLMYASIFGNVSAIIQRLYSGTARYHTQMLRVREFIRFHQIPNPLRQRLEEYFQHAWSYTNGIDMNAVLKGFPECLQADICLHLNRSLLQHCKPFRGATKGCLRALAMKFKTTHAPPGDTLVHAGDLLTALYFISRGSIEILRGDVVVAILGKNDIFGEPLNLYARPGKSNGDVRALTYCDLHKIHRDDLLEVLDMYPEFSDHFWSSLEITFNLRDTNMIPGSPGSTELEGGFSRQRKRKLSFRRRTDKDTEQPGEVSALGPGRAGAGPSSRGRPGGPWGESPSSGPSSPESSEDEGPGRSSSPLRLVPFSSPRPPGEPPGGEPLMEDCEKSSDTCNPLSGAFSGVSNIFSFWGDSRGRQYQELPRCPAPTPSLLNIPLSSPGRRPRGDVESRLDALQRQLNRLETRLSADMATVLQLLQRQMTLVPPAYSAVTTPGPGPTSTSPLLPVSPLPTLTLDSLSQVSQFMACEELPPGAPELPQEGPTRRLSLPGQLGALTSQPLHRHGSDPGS

| Structure (SMILES) | hERG current change (%, negative = inhibition) at 10uM |
| --- | --- |
| CC(C)(C)c1ccc(-c2noc(CCC(N)=O)n2)cc1 | -11% |
| COc1ccc(N2CCN(S(=O)(=O)CCNC(=O)/C=C/c3ccccc3)CC2)cc1 | -34.1% |
| CCCCC(=O)Nc1sc2c(c1C#N)CC(C)(C)OC2 | -5.82% |
| Cc1ccc(S(=O)(=O)NCC(=O)OC2CCOC2=O)cc1 (centres unmarked) | 4.46% |
| CC1CN(CCCOc2ccccc2-c2ccccc2)CC(C)O1.O=C(O)C(=O)O (centres unmarked) | -47.2% |
| CCc1nc(NCCC(C)C)c2nnn(Cc3ccccc3)c2n1 | 23.2% |
| CCN(CC(=O)Nc1c(F)cccc1F)C(=O)CSc1nc2ccccc2o1 | -1.64% |
| Cc1ccc(S(=O)(=O)NCCC(=O)NCC(c2cccs2)N2CCOCC2)cc1 (centres unmarked) | -4.62% |
| CC(=O)Cc1nsc(NC(=O)c2ccc(-c3ccc(Cl)c(C(F)(F)F)c3)o2)n1 | 15.3% |
| CSc1nnc(C)c(=O)n1COC(=O)/C=C/c1ccccc1 | -10.5% |
| CN(Cc1ccon1)C(=O)CC1C(=O)NCCN1Cc1ccc(F)c(F)c1 (centres unmarked) | -4.23% |
| CC(=O)Nc1ccc2c(c1)CCCN2C(=O)c1ccccc1 | 11.1% |
| O=C(Nc1ccc([N+](=O)[O-])cc1)C1(c2ccccc2)CCOCC1 | -69.1% |
| O=C(NC(=S)N(Cc1ccccc1)Cc1ccccc1)C1CCCCC1 | 12.6% |
| FC(F)(F)c1cccc(N2CCc3cn[nH]c32)c1 | -11.7% |
| Cc1ccc(S(=O)(=O)N2CCN(CC(=O)N/N=C/c3ccc(C)o3)CC2)cc1 | -38.9% |
| CCCC[n+]1ccn(-c2nc3ccccc3nc2[N-]S(=O)(=O)c2ccc(Cl)cc2)c1 | -19.8% |
| Cc1cc(NC(=O)COC(=O)c2cccc(S(=O)(=O)N3CCOCC3)c2)no1 | 11.4% |
| COc1ccc(NC(=O)CN2CCN(S(=O)(=O)c3ccc(Br)cc3)CC2)c(OC)c1 | 19.8% |
| CC(C)CC(=O)Nc1ccc2c(c1)nc(CCN1CCCCC1)n2C | -9.9% |
| CCN1CCN(C(c2cccs2)C(C)NC(=O)c2ccccc2)CC1 (centres unmarked) | -1.79% |
| COc1ccc(CN2CCC(C(=O)N(C)CCc3ccc(OC)c(OC)c3)CC2)c(OC)c1.O=C(O)C(=O)O | -44.9% |

| Structure (SMILES) | hERG current change (%, negative = inhibition) at 10uM |
| --- | --- |
| CC1=C(C(=O)OC(C)C)C(C2CC=CCC2)NC(=O)N1 (centres unmarked) | 4.88% |
| Cc1ccc(NC(=O)CSc2nnc(-c3ccc(S(=O)(=O)N4CCCC4)cc3)o2)cc1C | -6.49% |
| Cc1nn(C2CCOC(C)(C)C2)c2c1C(c1ccc(OC(C)C)cc1)SCC(=O)N2 (centres unmarked) | -15.5% |
| CC1=C(C(=O)N(C)C)C(c2ccccc2OC(F)F)NC(=O)N1 (centres unmarked) | 3.49% |
| CC(C)NC(=O)c1ccccc1NC(=O)CS(=O)(=O)Cc1ccccc1 | -4.72% |
| OCCC1CN(CC#Cc2ccccc2)CCN1C1CCCC1 (centres unmarked) | -46.2% |
| Cc1ccc(N2C(=O)C3C4C=CC(CC4)C3C2=O)cc1Br (centres unmarked) | 15.4% |
| CCC(C(=O)Nc1cc(C)nn1-c1nc(C)cc(C)n1)c1ccccc1 (centres unmarked) | -67.7% |
| COc1ccccc1NC(=S)N(c1ccccc1)C(C)C | 6.18% |
| COc1ccc(CCNC(=O)CCNC(=O)c2ccccc2Cl)cc1 | 21.9% |
| COc1ccc(C2=NN(C(=O)CCC(=O)O)C(c3cccs3)C2)cc1OC (centres unmarked) | 17.1% |
| OC(COc1cccc2ccccc12)CN1CCCC1 (centres unmarked) | -29.4% |
| CCOC(=O)C(CC)Sc1nnc2n1C(C)(C)Cc1ccccc1-2 (centres unmarked) | -10.8% |
| O=C(CN1CCCCC1)N1CCN(c2ccccc2)CC1 | -6.04% |
| COc1ccc(N/C(C)=C/C(=O)c2ccccc2)cc1 | -2.07% |
| O=C1/C(=C/c2ccco2)CCc2ccccc21 | -5.9% |
| COc1ccc2oc(C(=O)OCC(=O)N(C)c3c(N)n(Cc4ccccc4)c(=O)[nH]c3=O)c(C)c2c1 | 4.41% |
| COCCN(C(=O)c1ccc(N2CCCC2=O)cc1)c1c(N)n(Cc2ccccc2)c(=O)[nH]c1=O | 3.26% |
| CCCCOCCCNC(=O)N[C@H](C(=O)O)C(C)CC (some centres unmarked) | -5.23% |
| CCCN(C(=O)CSc1nnnn1C)c1c(N)n(Cc2ccccc2)c(=O)[nH]c1=O | 18.4% |
| CC1(C)CC2(CCO1)N1CC3(C)CN2CC(C)(C1)C3=O (centres unmarked) | -1.6% |
| Nn1c(SCc2ccccc2)nnc1-c1ccccn1 | 5.06% |
